Reference: ChEMBL document CHEMBL4888484, “Replenishing the malaria drug discovery pipeline: Screening and hit evaluation of the MMV Hit Generation Library 1 (HGL1) against asexual blood stage Plasmodium falciparum ,using a nano luciferase reporter read-out” (2022)
The whole screen tested about 150,000 compounds, of which about 540 (0.36%) showed an effect of 50% or more. The list shows a part of the results.

System: Plasmodium falciparum
Test: Primary screen in NF54 nanoGlo assay, in single point, at 2uM, 72h; a lower Z score goes with more inhibition
Format: functional, Erythrocyte
Conditions: timepoint 72 hour

SMILES | % Inhibition | Z score
N#Cc1nnc2ccccc2c1N1CC[C@H](OCCN2CCCCC2)C1 | -3% | 0.31
Cn1cc(Cl)cc1C(=O)N1CC[C@](C)(O)[C@H](O)C1 | 2% | -0.21
COc1nc(C)ccc1C(=O)N1CCOCC1C1CCCC1=O (centres undefined) | -4% | 0.47
COc1ccc(Cl)cc1N1CCN(Cc2ccc(C(=O)NCc3cccc(C(F)(F)F)c3)o2)CC1 | -1% | 0.21
CC(C)(C)c1ccc(-c2ccc(C(=O)N3CC[C@H](NS(C)(=O)=O)C3)o2)cc1 | -6% | 1.03
CCC(=O)Nc1cc(C(=O)OCc2ccc(C(=O)Oc3ccccc3)cc2)ccc1C | -5% | 0.68
Cc1ccsc1CN(Cc1ccc(F)cc1)C(=O)CN(CC(C)C)C(=O)COc1ccc(Cl)cc1 | -7% | 1.01
CCN(Cc1cnn(CC)c1)c1ncnc2ccsc12 | 7% | -0.92
CCn1nc(CC(C)C)cc1C(=O)N1CCNC(=O)[C@@H]1CCO | 9% | -1.2
CCc1cc(N2CCN(c3ccc(C(=O)O)nn3)CC2)ncn1 | -10% | 1.18
COc1ccc(N(C)C(=S)Oc2ccc(C(=O)Nc3ccccc3)cc2)cc1 | -31% | 3.63
Cc1cc(CC(=O)Nc2csc(N3CCCCC3)n2)n[nH]1 | 5% | -0.55
CCCn1cc(C(=O)N2CC[C@@H]3OCc4cccc(c4)Oc4cc(ccc4C)C(=O)N(C)CC(=O)N[C@@H]3C2)c(C)n1 | 7% | -0.98
Cc1cc(COCC(=O)N[C@@H]2CC=CCC2)on1 | -9% | 1.72
O=C(NC(c1ccccc1)c1ccccc1)N1CCC[C@H](Oc2ccncn2)C1 | 1% | -0.14
Cc1nc(CCCC(=O)NC(C)(C)c2ccc3c(c2)OCO3)cs1 | -7% | 0.71
C=CCO[C@@H](C)C(=O)Nc1cncc2ccccc12 | -3% | 0.34
Cc1n[nH]c(C)c1CCC(=O)N1CC[C@]2(CC(=O)NC2=O)C1 | -11% | 0.98
Cc1ccc2c(c1)N(S(C)(=O)=O)CC[C@@H](C(=O)NC1CC1)O2 | 38% | -5.45
CC(C)[C@H](NC(=O)CCOc1ccccc1)c1ncnn1C | -16% | 1.63
COCCN(C)CC(=O)N1CC[C@]23C(=O)N(Cc4cn(nn4)CCCOc4cccc(c4)[C@H]12)c1ccccc13 | -13% | 2.41

SMILES | % Inhibition | Z score
CC1=C(Cc2cn([C@@H](C)c3cnn(C)c3)nn2)C(C)(C)CCC1 | 2% | -0.19
COc1ccc(N2CCN(C(=O)Nc3cc(C)n([C@@H](C)C4CC4)n3)CC2)nc1 | -1% | 0.21
Cc1ccc(NC(=O)Nc2cccc(-c3ccc(N4CCN(C)CC4)nn3)c2)cc1C | 30% | -1.18
CCCn1c(C)nnc1CN1CCC(O)(Cc2ccccn2)CC1 | -4% | 0.79
Cn1nccc1C(=O)NC1CCC(=O)NC1C1CC1 (centres undefined) | -5% | 0.77
Fc1cc2c(cc1Cl)C(NC[C@H]1CC[C@@H](c3nc(C4CC4)no3)O1)CC2 (some centres undefined) | -19% | 3.58
Cc1cccc(C)c1NC(=O)C1(N(Cc2ccco2)C(=O)c2ccccc2F)CCC(C)CC1 (centres undefined) | 13% | -1.62
Cc1cc(F)ccc1OCC(=O)c1ccc2c(c1)N([C@@H](C)C(=O)NCCN1CCCC1)C(=O)CO2 | 2% | -0.37
Cc1cccc(C(=O)N2CCC3(CC2)c2[nH]c4ccccc4c2CCN3C)c1 | -2% | 0.42
Cc1noc2ncc(CNC(C)(C)c3ccccc3)cc12 | 6% | -1.09
CC1CN(C(=O)C(=O)c2ccc(Br)cc2)CC(C)O1 (centres undefined) | -8% | 1.32
O=C(CCc1cc2n(n1)CCCNC2)N1CCc2[nH]c3ccc(F)cc3c2C1 | -4% | 0.68
CC1CN(Cc2nnc(-c3ccc(F)cc3)o2)CC(C)O1 (centres undefined) | 2% | -0.22
Cc1cnc(CNc2nc(C)cc(C)n2)cn1 | -3% | 0.5
CC(OC(=O)CC1CCCO1)C1CCCCN1C(=O)OC(C)(C)C (centres undefined) | 5% | -0.44
COC(=O)[C@@H](C)CN(CCc1ccc(S(N)(=O)=O)cc1)C(C)=O | -3% | 0.41
Clc1cncc(CN[C@@H]2CCC[C@@H]2n2ccnc2)c1 | -9% | 1.94
Cc1nc(-c2nnc(NC(=O)CCc3c(C)noc3C)o2)cs1 | -4% | 0.79
O=C(C[C@H](c1cccc(F)c1)c1c[nH]c2ccccc12)NC1CCCCC1 | 3% | -0.45
Nc1nc2ccccc2n1CCN1CCCC1 | -9% | 0.83
Cc1n[nH]c(CN(Cc2ccc(F)cc2)C2CCOCC2)n1 | -13% | 1.47

SMILES | % Inhibition | Z score
COc1cccc(CN2C[C@H](NCc3ccccc3C(F)(F)F)C[C@H]2C(=O)NC(C)C)c1OC | 0% | -0.07
Cc1nccc(O[C@H]2CCN(C(=O)c3cn(C)nn3)C2)n1 | 2% | -0.27
CC(=O)Nc1c(C)nn(-c2ccccc2)c1N1CCC(C(=O)NCCCN2CCC[C@H](C)C2)CC1 | -17% | 3.05
O=C(NCc1cccnc1-c1cccnc1)c1cc(-c2ccc(F)cc2)c[nH]1 | 4% | -0.59
Nc1ccc(CC(=O)N2Cc3ccccc3C2)cc1 | -43% | 5.1
CC(C)n1ncnc1NC(=O)NC[C@H]1CCCO1 | 5% | -0.7
CC(C)(C)n1cc([C@H]2N(C(=O)c3ccc4[nH]cnc4c3)CC23CCOCC3)cn1 | 1% | -0.23
Cc1nccn1CCCCNC(=O)[C@H]1CCc2[nH]nc(C(F)(F)F)c2C1 | -3% | 0.35
Fc1ccc(-c2cnc3n2C[C@H](CNCc2ccc(Cl)cc2)OC3)cc1 | -1% | 0.12
O=C1[C@@H]2CC[C@@H](CN(C3CCCCCC3)C2)N1Cc1cscn1 | -11% | 1.13
Cc1cc(C)n2ncc(CN(C)Cc3n[nH]c4c3CCC4)c2n1 | 1% | -0.15
COCC(=O)Nc1c(O)ccc(Br)c1C | 0% | 0.03
CN1C[C@@H]2C[C@H]1C(=O)NC[C@H]1O[C@H](CCOc3cc(-c4ccccc4)ccc3C(=O)N2)CC[C@@H]1O | -4% | 0.48
Cc1nc2c([nH]1)CN(Cc1ccc(Cl)o1)CC2 | 26% | -2.54
CCc1nccn1CCC(=O)N1CCC[C@H](C(=O)c2ccc(Cl)cc2)C1 | -12% | 1.75
Cn1nnc2c(=O)n(CC(=O)NCc3ccccc3Cl)cnc21 | 5% | -0.71
CN1CCC(NC(=O)c2cc[nH]n2)C1c1ccc(Cl)cc1 (centres undefined) | 0% | 0.02
COc1ccc(-c2nccn3cc(C(=O)N4CCCC4)nc23)cc1 | 26% | -2.95
Cc1oc2ncn(CCN3CCCC3)c(=O)c2c1C(=O)Nc1ccc(C#N)cc1 | 46% | -6.58
Cc1ccnc(NC(=O)c2ccc(CNC(=O)C3CCCC3)cc2)c1 | 1% | -0.11
CC[C@]1(c2ccc(C)cc2)NC(=O)N(CC(=O)c2cc(C)n(Cc3ccc4c(c3)OCO4)c2C)C1=O | -2% | 0.31

SMILES | % Inhibition | Z score
CN(CC(=O)N1CCC[C@H](Cn2ccnc2)C1)Cc1cccnc1 | 1% | -0.18
CNc1nc(C)c(-c2cccc3ccnn23)s1 | -3% | 0.36
CCc1cccc2c(C3CCN(C(=O)[C@H]4CCN(C)C(=O)C4)CC3)c[nH]c12 | -13% | 1.83
Cn1ncc(C2CCC2)c1C(=O)NC[C@@H](C(=O)O)c1ccc(F)cc1 | 13% | -1.61
Cc1noc(C)c1CN(C)C(=O)c1ccc2[nH]c3c(c2c1)CCCC3 | -2% | 0.34
O=C(c1cn2c3c(cc(Br)cc3c1=O)CC2)N1CCCCC1 | 2% | -0.23
CCN(CC)Cc1cnc2c(C(=O)N3CCC[C@H]3c3nonc3C)cnn2c1 | -5% | 0.57
CN(Cc1ccccc1)c1ncccc1CNc1cc(C#N)ccn1 | -8% | 1.17
Cc1cnc([C@H](C)Nc2cnn(-c3ccccc3Br)c2)o1 | 5% | -0.7
C[C@H](O)CN(C)C(=O)NCCc1cc(Cl)ccc1Br | -2% | 0.23
c1ccc(-c2nnc3n2C2(CCCC2)Cc2ccccc2-3)cc1 | -9% | 1.24
Cc1nnc(N(C)C[C@H]2CCN(C(C)C)C2)s1 | -16% | 2.04
Cc1c(NC(=O)N2CCO[C@]3(CCOC3)C2)cccc1C(F)(F)F | 13% | -1.46
O=C(CN1C(=O)NC2(CCN(Cc3ccccc3)CC2)C1=O)Nc1ccc2c(c1)OCCO2 | -7% | 0.78
COc1ccc(-n2cnc3cc(Nc4nnc(-c5ccc(C)cc5)c5ccccc45)ccc32)cc1 | 8% | -1.02
COc1ccccc1C(O)Cn1cc(C(=O)NC2CCc3ccccc32)nn1 (centres undefined) | -10% | 1.85
O=C(NCc1ccc2c(c1)OCO2)[C@@H]1CCCCn2nnnc21 | -10% | 1.81
COC(=O)[C@H](NCC(=O)Nc1cccc(N2CCCC2=O)c1)c1ccc(OC)cc1 | -13% | 1.2
Brc1ccc(-c2noc(-c3cccnc3)n2)o1 | -5% | 0.73
